The supplement of paper PMC8728848
Some of the results follow.

Key:
Assay in all cases: glycan array binding signal (z-score within array); higher = stronger binding
Settings in all cases: glycan notation: IUPAC condensed, linker removed
[1] = target: GlcNAc(a1-4)Gal(b1-4)GalNAc
In short: (§1)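 From the Consortium for Functional Glycomics database, 3228 arrays were curated, keeping only those whose protein sequence was available. Binding is given as a within-array Z-score averaged across arrays sharing a protein sequence and across linkers. Negative Z-scores can be read as non-binding.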

[2] = target: GlcNAc(a1-4)Gal(b1-4)GlcNAc
In short: as §1

[3] = target: GlcNAc(a1-4)Gal(b1-4)GlcNAc(b1-3)Gal(b1-4)Glc
In short: as §1

[4] = target: GlcNAc(a1-4)Gal(b1-4)GlcNAc(b1-3)Gal(b1-4)GlcNAc
In short: as §1

[5] = target: GlcNAc(a1-4)Gal(b1-4)GlcNAc(b1-3)Gal(b1-4)GlcNAc(b1-3)Gal(b1-4)GlcNAc
In short: as §1

[6] = target: GlcNAc(a1-4)Gal(b1-4)GlcNAc(b1-3)Gal(b1-4)[Fuc(a1-3)]GlcNAc(b1-3)Gal(b1-4)[Fuc(a1-3)]GlcNAc
In short: as §1

[7] = target: GlcNAc(a1-6)Gal(b1-4)GlcNAc
In short: as §1

[8] = target: GlcNAc(b1-2)Gal(b1-3)GalNAc
In short: as §1

[9] = target: GlcNAc(b1-2)Man(a1-3)[GlcNAc(b1-2)Man(a1-6)]Man(b1-4)GlcNAc(b1-4)GlcNAc
In short: as §1

[10] = target: GlcNAc(b1-2)Man(a1-3)[GlcNAc(b1-2)Man(a1-6)]Man(b1-4)GlcNAc(b1-4)[Fuc(a1-6)]GlcNAc
In short: as §1

[11] = target: GlcNAc(b1-2)[GlcNAc(b1-4)]Man(a1-3)[GlcNAc(b1-2)Man(a1-6)]Man(b1-4)GlcNAc(b1-4)GlcNAc
In short: as §1

GlcNAc(b1-3)Gal = target: GlcNAc(b1-3)Gal
In short: as §1

[12] = target: GlcNAc(b1-3)Gal(b1-3)GalNAc
In short: as §1

GlcNAc(b1-3)Gal(b1-4)Glc = target: GlcNAc(b1-3)Gal(b1-4)Glc
In short: as §1

[13] = target: GlcNAc(b1-3)Gal(b1-4)GlcNAc
In short: as §1

[14] = target: GlcNAc(b1-3)Gal(b1-4)GlcNAc(b1-3)Gal(b1-4)GlcNAc
In short: as §1

GlcNAc(b1-3)GalNAc = target: GlcNAc(b1-3)GalNAc
In short: as §1

GlcNAc(b1-3)Man = target: GlcNAc(b1-3)Man
In short: as §1

[15] = target: GlcNAc(b1-3)[GlcNAc(b1-4)][GlcNAc(b1-6)]GlcNAc
In short: as §1

[16] = target: GlcNAc(b1-3)[GlcNAc(b1-6)]Gal(b1-4)GlcNAc
In short: as §1

[17] = target: GlcNAc(b1-3)[GlcNAc(b1-6)]GalNAc
In short: as §1

[18] = target: GlcNAc(b1-4)Gal(b1-4)GlcNAc
In short: as §1

GlcNAc(b1-4)GlcNAc = target: GlcNAc(b1-4)GlcNAc
In short: as §1

[19] = target: GlcNAc(b1-4)GlcNAc(b1-4)GlcNAc
In short: as §1

[20] = target: GlcNAc(b1-4)GlcNAc(b1-4)GlcNAc(b1-4)GlcNAc(b1-4)GlcNAc
In short: as §1

[21] = target: GlcNAc(b1-4)GlcNAc(b1-4)GlcNAc(b1-4)GlcNAc(b1-4)GlcNAc(b1-4)GlcNAc
In short: as §1

[22] = target: GlcNAc(b1-4)[GlcNAc(b1-6)]GalNAc
In short: as §1

[23] = target: GlcNAc(b1-6)Gal(b1-4)GlcNAc
In short: as §1

GlcNAc(b1-6)GalNAc = target: GlcNAc(b1-6)GalNAc
In short: as §1

GlcNAc3Prop(b1-4)GlcNAc = target: GlcNAc3Prop(b1-4)GlcNAc
In short: as §1

[24] = target: GlcNAc6S(b1-3)Gal(b1-4)GlcNAc
In short: as §1

Kdn(a2-3)Gal(b1-3)GalNAc = target: Kdn(a2-3)Gal(b1-3)GalNAc
In short: as §1

Kdn(a2-3)Gal(b1-3)GlcNAc = target: Kdn(a2-3)Gal(b1-3)GlcNAc
In short: as §1

Kdn(a2-3)Gal(b1-4)Glc = target: Kdn(a2-3)Gal(b1-4)Glc
In short: as §1

Kdn(a2-3)Gal(b1-4)GlcNAc = target: Kdn(a2-3)Gal(b1-4)GlcNAc
In short: as §1

[25] = target: Kdn(a2-3)Gal(b1-4)[Fuc(a1-3)]GlcNAc
In short: as §1

Kdn(a2-6)Gal(b1-4)GlcNAc = target: Kdn(a2-6)Gal(b1-4)GlcNAc
In short: as §1

[26] = target: Man(a1-2)Man(a1-2)Man(a1-3)Man
In short: as §1

[27] = target: Man(a1-2)Man(a1-2)Man(a1-6)[Man(a1-3)]Man
In short: as §1

Man(a1-2)Man(a1-3)Man = target: Man(a1-2)Man(a1-3)Man
In short: as §1

[28] = target: Man(a1-2)Man(a1-3)[Man(a1-2)Man(a1-6)]Man
In short: as §1

[29] = target: Man(a1-2)Man(a1-3)[Man(a1-2)Man(a1-6)]Man(a1-6)[Man(a1-2)Man(a1-2)Man(a1-3)]Man
In short: as §1

[30] = target: Man(a1-2)Man(a1-3)[Man(a1-2)Man(a1-6)]Man(a1-6)[Man(a1-2)Man(a1-2)Man(a1-3)]Man(b1-4)GlcNAc(b1-4)GlcNAc
In short: as §1

[31] = target: Man(a1-2)Man(a1-3)[Man(a1-6)]Man(a1-6)[Man(a1-2)Man(a1-3)]Man(b1-4)GlcNAc(b1-4)GlcNAc
In short: as §1

[32] = target: Man(a1-2)Man(a1-6)[Man(a1-3)]Man(a1-6)[Man(a1-2)Man(a1-2)Man(a1-3)]Man
In short: as §1

[33] = target: Man(a1-2)Man(a1-6)[Man(a1-3)]Man(a1-6)[Man(a1-2)Man(a1-2)Man(a1-3)]Man(b1-4)GlcNAc(b1-4)GlcNAc
In short: as §1

Man(a1-3)[Man(a1-6)]Man = target: Man(a1-3)[Man(a1-6)]Man
In short: as §1

[34] = target: Man(a1-3)[Man(a1-6)]Man(a1-6)[Man(a1-2)Man(a1-3)]Man(b1-4)GlcNAc(b1-4)GlcNAc
In short: as §1

[35] = target: Man(a1-3)[Man(a1-6)]Man(a1-6)[Man(a1-3)]Man
In short: as §1

[36] = target: Man(a1-3)[Man(a1-6)]Man(a1-6)[Man(a1-3)]Man(b1-4)GlcNAc(b1-4)GlcNAc
In short: as §1

[37] = target: Man(a1-3)[Man(a1-6)]Man(b1-4)GlcNAc(b1-4)GlcNAc
In short: as §1

Man(a1-6)Man = target: Man(a1-6)Man
In short: as §1

Man(b1-4)GlcNAc = target: Man(b1-4)GlcNAc
In short: as §1

Neu5Ac(a2-3)Gal = target: Neu5Ac(a2-3)Gal
In short: as §1

[38] = target: Neu5Ac(a2-3)Gal(b1-3)GalNAc
In short: as §1

[39] = target: Neu5Ac(a2-3)Gal(b1-3)GalNAc(b1-3)Gal(a1-4)Gal(b1-4)Glc
In short: as §1

[40] = target: Neu5Ac(a2-3)Gal(b1-3)GalNAc(b1-4)[Neu5Ac(a2-3)]Gal(b1-4)Glc
In short: as §1

[41] = target: Neu5Ac(a2-3)Gal(b1-3)GalNAc6S
In short: as §1

[42] = target: Neu5Ac(a2-3)Gal(b1-3)GlcNAc
In short: as §1

[43] = target: Neu5Ac(a2-3)Gal(b1-3)GlcNAc(b1-2)Man(a1-3)[Neu5Ac(a2-3)Gal(b1-3)GlcNAc(b1-2)Man(a1-6)]Man(b1-4)GlcNAc(b1-4)GlcNAc
In short: as §1

[44] = target: Neu5Ac(a2-3)Gal(b1-3)GlcNAc(b1-3)Gal(b1-3)GlcNAc
In short: as §1

[45] = target: Neu5Ac(a2-3)Gal(b1-3)GlcNAc(b1-3)Gal(b1-4)GlcNAc
In short: as §1

[46] = target: Neu5Ac(a2-3)Gal(b1-3)GlcNAc(b1-3)GalNAc
In short: as §1

[47] = target: Neu5Ac(a2-3)Gal(b1-3)GlcNAc6S
In short: as §1

[48] = target: Neu5Ac(a2-3)Gal(b1-3)[Fuc(a1-4)]GlcNAc
In short: as §1

[49] = target: Neu5Ac(a2-3)Gal(b1-3)[Fuc(a1-4)]GlcNAc(b1-3)Gal(b1-3)[Fuc(a1-4)]GlcNAc
In short: as §1

[50] = target: Neu5Ac(a2-3)Gal(b1-3)[Fuc(a1-4)]GlcNAc(b1-3)Gal(b1-4)[Fuc(a1-3)]GlcNAc
In short: as §1

[51] = target: Neu5Ac(a2-3)Gal(b1-3)[Neu5Ac(a2-3)Gal(b1-4)]GlcNAc
In short: as §1

[52] = target: Neu5Ac(a2-3)Gal(b1-3)[Neu5Ac(a2-6)]GalNAc
In short: as §1

Neu5Ac(a2-3)Gal(b1-4)Glc = target: Neu5Ac(a2-3)Gal(b1-4)Glc
In short: as §1

Measured: glycan array binding signal (z-score)

B1: GH98CBM51-1 (Streptococcus pneumoniae) (protein)
chain: MTYLSDMDWSSATHGDIDKTKTVQKDAPFTTGNKGEHTKISLLTSDDKVKYFDKGIGTVADSPSVISYDISGQGFEKFETYIGIDQSANSSRSDHAVVDRIEIEIDGKVVYSSSVTNPEGFRYNTQAQFISVTIPQNAKKISLKSFAGEHTWGDEVVFADAKLIKTVST
-0.188: Kdn(a2-3)Gal(b1-4)GlcNAc | [37] | [39] | [48] | [51] | Neu5Ac(a2-3)Gal(b1-4)Glc
-0.194: [7] | GlcNAc(b1-3)GalNAc | [42]
-0.128: [5]
-0.189: [1] | [3] | [16] | [18] | GlcNAc(b1-4)GlcNAc | [27] | [52]
-0.173: [6]
-0.18: [12]
-0.145: Man(b1-4)GlcNAc
-0.196: [13] | [19] | [23] | [47]
-0.181: [10] | [31]
-0.187: GlcNAc(b1-3)Gal | [14] | [25] | [30]
-0.186: [2] | [4] | [11] | [28] | [29]
-0.164: GlcNAc(b1-6)GalNAc
-0.166: [43]
-0.184: [33] | [41] | [49]
-0.19: GlcNAc(b1-3)Gal(b1-4)Glc | [24] | Man(a1-2)Man(a1-3)Man | [35] | [38] | [40]
-0.191: GlcNAc3Prop(b1-4)GlcNAc | Kdn(a2-3)Gal(b1-4)Glc | [45]
-0.183: [15] | [46] | [50]
-0.195: [20] | [21] | Neu5Ac(a2-3)Gal
-0.193: [32] | Man(a1-3)[Man(a1-6)]Man | [44]
-0.182: [9] | Kdn(a2-3)Gal(b1-3)GlcNAc
-0.185: [36]
-0.197: [8]
-0.192: all other assays above
